# In PubChem BioAssay AID1347165 (National Center for Advancing Translational Sciences (NCATS), 2019):
# In all, about 220,000 compounds went through this assay and about 5,700 (2.6%) were called active. The shares of active, inactive and inconclusive entries below differ from those in the screen. The call rests on the fitted dose curve; in most records, active means well fitted inhibition curve with a large enough effect; inconclusive means small, poorly fitted or top-dose-only effect; inactive means no such curve, though single readings can be large or run the other way. Potencies of inconclusive entries are doubtful fits and often do not repeat.
# Target: Lysine-specific demethylase 5B (Homo sapiens) (UniProt Q9UGL1)
# Test: Primary screen for KDM5B Histone Demethylases FDH-coupled qHTS; further: nearly all actives have a fitted effect of over 70% in size; on activity change, negative = inhibition: 0% is about no effect
# Conditions: FDH-coupled NADH fluorescence (FDH is formaldehyde dehydrogenase); activity change, negative = inhibition: at 57.7 µM (top of the series) unless noted
# Procedure, shortened: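 Inhibition is measured as reduced NADH fluorescence generation from FDH coupling to formaldehyde release. Truncated KDM5BΔAP at 200 nM final acts on H3K4me3 peptide (12.5 µM in substrate mix) in pH 7.5 HEPES buffer with Tween-20, 30 min, room temperature.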
# Potency means the concentration at half of the fitted maximal effect; tags describe the fitted curve by direction and shape.
# Chain of UniProt Q9UGL1 (Q9UGL1 whole entry, looked up): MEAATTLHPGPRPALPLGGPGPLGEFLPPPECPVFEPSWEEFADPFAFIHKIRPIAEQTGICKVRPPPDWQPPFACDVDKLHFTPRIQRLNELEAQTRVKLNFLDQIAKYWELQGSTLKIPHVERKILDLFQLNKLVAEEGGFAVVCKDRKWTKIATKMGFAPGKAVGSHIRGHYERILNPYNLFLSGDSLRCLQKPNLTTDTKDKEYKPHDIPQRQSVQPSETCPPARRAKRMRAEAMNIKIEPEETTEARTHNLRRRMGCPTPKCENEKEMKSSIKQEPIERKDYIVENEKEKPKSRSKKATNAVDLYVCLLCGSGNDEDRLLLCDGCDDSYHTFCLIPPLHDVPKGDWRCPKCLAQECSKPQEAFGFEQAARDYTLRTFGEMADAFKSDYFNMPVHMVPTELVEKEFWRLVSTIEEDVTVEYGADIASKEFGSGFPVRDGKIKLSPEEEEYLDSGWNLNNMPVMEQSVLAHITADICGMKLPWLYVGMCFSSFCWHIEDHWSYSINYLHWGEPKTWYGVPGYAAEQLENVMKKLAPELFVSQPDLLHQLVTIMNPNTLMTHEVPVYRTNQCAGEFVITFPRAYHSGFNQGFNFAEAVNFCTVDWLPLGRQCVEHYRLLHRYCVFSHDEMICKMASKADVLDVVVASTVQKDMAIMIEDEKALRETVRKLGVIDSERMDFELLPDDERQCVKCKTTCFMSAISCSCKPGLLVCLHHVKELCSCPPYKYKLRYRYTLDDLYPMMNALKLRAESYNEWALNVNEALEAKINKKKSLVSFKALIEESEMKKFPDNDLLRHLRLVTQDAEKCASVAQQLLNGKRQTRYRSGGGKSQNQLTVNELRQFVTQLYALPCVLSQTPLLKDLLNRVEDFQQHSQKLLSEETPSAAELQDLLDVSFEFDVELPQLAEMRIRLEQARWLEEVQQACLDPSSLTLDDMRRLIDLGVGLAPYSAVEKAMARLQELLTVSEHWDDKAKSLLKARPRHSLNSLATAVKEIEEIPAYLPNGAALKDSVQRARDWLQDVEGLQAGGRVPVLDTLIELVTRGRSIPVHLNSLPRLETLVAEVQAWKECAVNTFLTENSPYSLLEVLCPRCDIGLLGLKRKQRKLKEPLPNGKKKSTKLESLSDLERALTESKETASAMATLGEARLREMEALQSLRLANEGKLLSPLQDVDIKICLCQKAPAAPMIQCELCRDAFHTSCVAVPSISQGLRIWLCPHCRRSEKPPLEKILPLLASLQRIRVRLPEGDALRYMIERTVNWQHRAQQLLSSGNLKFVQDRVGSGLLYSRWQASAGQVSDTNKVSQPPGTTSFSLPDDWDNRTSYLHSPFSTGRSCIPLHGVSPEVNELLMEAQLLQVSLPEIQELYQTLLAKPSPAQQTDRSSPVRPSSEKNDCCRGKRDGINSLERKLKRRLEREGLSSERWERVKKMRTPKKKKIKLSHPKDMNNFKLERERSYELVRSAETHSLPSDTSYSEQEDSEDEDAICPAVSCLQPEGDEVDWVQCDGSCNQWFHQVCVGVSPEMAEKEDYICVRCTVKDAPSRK
Compound,"activity change, negative = inhibition",Potency
Cc1c(CCC(=O)N2CCN(Cc3ccccc3)CC2)c(=O)oc2cc(O)ccc12,inactive: -3130%,
Cc1noc(/C=C/c2ccccc2F)c1S(=O)(=O)N1CCC(C(=O)N(C)Cc2ccco2)CC1,,"inconclusive: 35.5 µM [inhibitor, partial curve, poor fit]"
COC(=O)c1c(N)n(-c2cc(Cl)cc(Cl)c2)c2nc3ccccc3nc12,,"inconclusive: 2 µM [inhibitor, full curve, poor fit]"
CC(NC(=O)c1ccccc1F)C(=O)N1CCN(c2ccccn2)CC1 (stereo not drawn),,"inconclusive: 25.1 µM [inhibitor, partial curve, poor fit]"
Cc1ccc2[nH]c(=O)c(CCC(=O)N3CCCCC3)cc2c1,,active: 28.2 µM
CC(C)(C)c1ccc(C(=O)Nc2ccc(F)c(Cl)c2)cc1,inactive: 18.3%,
COCCCNc1nc2c(S(=O)(=O)c3cc(C)ccc3C)nnn2c2ccccc12,,"inconclusive: 56.2 µM [inhibitor, partial curve, poor fit]"
CCCNC(=O)C(C)(C)Oc1nn(Cc2ccccc2)c2ccc(COC)cc12,,active: 31.6 µM
CCOC(=O)c1cc(S(=O)(=O)Nc2ccc(OCc3ccccc3)cc2)[nH]n1,inactive: -2.7%,
Cc1ccc2c(c1)cc(C(=O)Nc1ccccc1)n2C,,"inconclusive: 22.4 µM [inhibitor, single point]"
CCn1c(C)cc(C)c(C(=O)NCC2CCOc3ccccc3C2)c1=O (stereo not drawn),,"inconclusive: 20 µM [inhibitor, single point]"
Oc1ccc(/C=N/Nc2ccc(Cl)nn2)cc1O,,"inconclusive: 20 µM [inhibitor, partial curve, poor fit]"
O=C1NCc2ccccc2CC12CCN(C/C=C/c1ccccc1)CC2,,"inconclusive: 89.1 µM [inhibitor, partial curve, poor fit]"
COc1cccc(CNS(=O)(=O)c2cc3c(cc2C)n(C)c(=O)c(=O)n3C)c1,,"inconclusive: 39.8 µM [inhibitor, single point]"
Cc1noc(-c2ccc(NCc3ccccc3)c([N+](=O)[O-])c2)n1,inactive: -24.5%,
CCNC(=O)N1CCc2nc(N3CCN(CC)CC3)sc2C1,,"inconclusive: 25.1 µM [inhibitor, partial curve]"
CCN1CCN(c2nc(C)c3c(c2C#N)CCCC3)CC1,,"inconclusive: 8.91 µM [inhibitor, partial curve, poor fit]"
NC(=O)c1ccc(NC(=O)C2CC(=O)N(c3n[nH]c4cccc(F)c34)C2)cc1 (stereo not drawn),,"inconclusive: 17.8 µM [inhibitor, partial curve, poor fit]"
COc1ccc(-c2[nH]c(-c3ccc(O)cc3)nc2-c2ccccc2)cc1,,"inconclusive: 31.6 µM [inhibitor, partial curve, poor fit]"
CCOC(=O)CSc1ncn(-c2nc(NC)nc(N3CCCCC3)n2)n1,inactive: 20.4%,
COc1ccccc1CN1CCc2nc(C3CC3)nc(-c3ccc(O)cc3)c2CC1,,"inconclusive: 39.8 µM [inhibitor, single point]"

Compound,"activity change, negative = inhibition",Potency
COC(=O)c1ccc(CCNC(=O)C(C)C)cc1,inactive: 6.51%,
CN1CC(=O)N(C2CCCNCC2)Cc2c(NCc3ccccc3F)ncnc21 (stereo not drawn),,"inconclusive: 56.2 µM [inhibitor, partial curve, poor fit]"
CCCCN(C)C(=O)Cn1c(=O)n(Cc2ccc3c(c2)OCO3)c(=O)c2sccc21,,"inconclusive: 39.8 µM [inhibitor, partial curve, poor fit]"
COc1ccc2c(c1)c1ncn(Cc3ccc(F)cc3)c(=O)c1n2C,,"inconclusive: 31.6 µM [inhibitor, partial curve, poor fit]"
O=c1nc(-c2ccc(Cl)cc2)c2ccccc2[nH]1,inactive: -13.6%,
O=C(c1ccc(C(F)(F)F)s1)N1CCCN(c2nnc3ccccn23)CC1,,"inconclusive: 5.01 µM [inhibitor, full curve]"
Cc1ccccc1Cn1c(CN(C)Cc2ccccc2)nc2c1c(=O)n(C)c(=O)n2C,inactive: -1.92%,
COC(=O)c1cc2oc3ccccc3c2n1Cc1ccc(C)cc1,,"inconclusive: 3.98 µM [inhibitor, full curve, poor fit]"
COc1ccc(-c2ccnc3nc(CCc4ccccc4)nn23)c(F)c1,,active: 28.2 µM
CCOC(=O)c1cc2c(=O)n3ccccc3nc2n(Cc2ccco2)c1=NC(=O)c1ccccc1Br,,"inconclusive: 35.5 µM [inhibitor, partial curve, poor fit]"
Cc1cccc(N2CCN(C(=O)c3ccc4c(c3)N(C)C3CCCCCN3C4=O)CC2)c1 (stereo not drawn),,"inconclusive: 25.1 µM [inhibitor, partial curve, poor fit]"
CSCC(=O)N[C@H]1CCN2C(=O)c3cc(-c4ccc(Cl)cc4)ccc3NC(=O)[C@H]12,,active: 28.2 µM
COc1ccc(/C(C#N)=C/c2cc(Br)c(OCCOc3ccccc3)c(OC)c2)cc1OC,,"inconclusive: 31.6 µM [inhibitor, single point]"
COc1ccc2c(c1)cc(C(=O)NCCC(=O)Nc1ccc3c(c1)OCCO3)n2C,inactive: -10.1%,
Cc1ccccc1C(=O)/C=C/c1cccnc1,inactive: -9.77%,
O=C(Cc1csc(-c2cccs2)n1)NCc1ccc(F)cc1,,"inconclusive: 25.1 µM [inhibitor, single point]"
COc1ccc(N(Cc2cccs2)C(=O)c2ccco2)cc1,,"inconclusive: 50.1 µM [inhibitor, single point]"
COc1ccc(C2Cn3nnc(-c4noc(-c5cccc(N(C)C)c5)n4)c3CO2)cc1 (stereo not drawn),,"inconclusive: 3.16 µM [inhibitor, partial curve, poor fit]"
COCCCNc1nc2c(c(=O)n(Cc3ccc(F)cc3)c(=O)n2C)n1C,,"inconclusive: 2 µM [inhibitor, partial curve, poor fit]"
CCS(=O)(=O)N1CCc2cc(C(=O)Nc3ccc(Br)cc3F)ccc21,inconclusive: -39% [inhibitor],
Cc1ccc(-n2c(=O)c3c(c4cc(C)ccc4n3C)n(CC(=O)Nc3ccc(F)cc3)c2=O)cc1,,"inconclusive: 2.24 µM [inhibitor, partial curve, poor fit]"

Compound,"activity change, negative = inhibition",Potency
COc1ccc(Cl)cc1-c1ccc2c(c1)C(=O)N1C[C@H](O)C[C@H]1C(=O)N2,,"inconclusive: 31.6 µM [inhibitor, partial curve]"
CC(=O)c1ccc(N2CCN(C(=O)c3cn(C)c(=O)c4c3c3ccccc3n4C)CC2)cc1,,"inconclusive: 39.8 µM [inhibitor, single point]"
COc1ccc(CNC(=O)COCc2cc(-c3ccc4c(c3)OCO4)on2)cc1,,"inconclusive: 25.1 µM [inhibitor, single point]"
Cc1cc(C)c(NC(=O)CN(C)c2nc(CN3CCOCC3)nc3sc(C)c(C)c23)c(C)c1,inactive: -0.846%,
COc1cccc(-c2cc3c(=O)n(CC(O)c4cccc(C#N)c4)ccn3n2)c1 (stereo not drawn),,active: 22.4 µM
COc1ccccc1-c1nn2c(=O)cc(CN3CCN(C(=O)Nc4ccc(C)cc4Cl)CC3)nc2s1,,"inconclusive: 22.4 µM [inhibitor, partial curve, poor fit]"
Nc1cccc(C(=O)/C=C/c2ccc(Cl)cc2Cl)c1,,"inconclusive: 39.8 µM [inhibitor, partial curve, poor fit]"
Cc1ccc(C(=O)Nc2nc3ccc(S(=O)(=O)N(C)C)cc3s2)cc1C,,"inconclusive: 25.1 µM [inhibitor, partial curve, poor fit]"
CN[C@@H](CO)C(=O)NCc1nc(-c2ccc(C)cc2)c(-c2ccccn2)[nH]1,,"inconclusive: 31.6 µM [inhibitor, partial curve, poor fit]"
CN1NC2(CCCCC2)N(c2ccccc2)C1=S,,"inconclusive: 31.6 µM [inhibitor, single point]"
COC(=O)C1=C(C)N=C2SC=C(CC(=O)NCC3CCCO3)N2C1c1cccc(OC)c1 (stereo not drawn),,"inconclusive: 17.8 µM [inhibitor, single point]"
OCc1ccnc(-c2ccc(-c3ccn[nH]3)cc2)c1,,"inconclusive: 31.6 µM [inhibitor, partial curve, poor fit]"
CC(CNC(=O)c1ccc2c(c1)nc1n2CCCCC1)c1ccccc1 (stereo not drawn),,"inconclusive: 0.794 µM [inhibitor, partial curve, poor fit]"
O=C(OCc1cccc(F)c1)c1ccc2c(=O)n3c(nc2c1)CCC3,,"inconclusive: 17.8 µM [inhibitor, partial curve, poor fit]"
COCCOc1ccc(-c2ccc(C#N)cc2)cc1,,"inconclusive: 22.4 µM [inhibitor, partial curve, poor fit]"
Cc1ccc(NC(=O)c2ccc3c(c2)N(C)C2CCCCCN2C3=O)cc1 (stereo not drawn),,"inconclusive: 22.4 µM [inhibitor, partial curve, poor fit]"
Clc1cccc(/C=N/Nc2ccc(Cl)c(Cl)c2)c1,,"inconclusive: 20 µM [inhibitor, partial curve, poor fit]"
Cc1nccc(N2CCC(COc3cnc4c(ccn4CC(N)=O)c3)CC2)n1,,"inconclusive: 31.6 µM [inhibitor, partial curve, poor fit]"
O=C(CCC(=O)N1CCSc2ccccc21)Nc1ccc(Cl)cc1,,"inconclusive: 17.8 µM [inhibitor, partial curve, poor fit]"
COc1cccc(-c2nn(-c3ccccc3)cc2C(=O)NCC(C)(C)N2CCOCC2)c1,inactive: 12%,
O=C(O)CCn1c(=O)cc(C(F)(F)F)c2cn(C3CCCC3)nc21,,"inconclusive: 22.4 µM [inhibitor, partial curve, poor fit]"
